Source: publication doi:10.1101/2023.12.29.573648 (bioRxiv, 2023)

Biological target: T1, 10xHis-CAPRIN1 (recombinant human CAPRIN1 from insect cells) (human, UniProt Q14444 1-709)
T1 sequence (looked up): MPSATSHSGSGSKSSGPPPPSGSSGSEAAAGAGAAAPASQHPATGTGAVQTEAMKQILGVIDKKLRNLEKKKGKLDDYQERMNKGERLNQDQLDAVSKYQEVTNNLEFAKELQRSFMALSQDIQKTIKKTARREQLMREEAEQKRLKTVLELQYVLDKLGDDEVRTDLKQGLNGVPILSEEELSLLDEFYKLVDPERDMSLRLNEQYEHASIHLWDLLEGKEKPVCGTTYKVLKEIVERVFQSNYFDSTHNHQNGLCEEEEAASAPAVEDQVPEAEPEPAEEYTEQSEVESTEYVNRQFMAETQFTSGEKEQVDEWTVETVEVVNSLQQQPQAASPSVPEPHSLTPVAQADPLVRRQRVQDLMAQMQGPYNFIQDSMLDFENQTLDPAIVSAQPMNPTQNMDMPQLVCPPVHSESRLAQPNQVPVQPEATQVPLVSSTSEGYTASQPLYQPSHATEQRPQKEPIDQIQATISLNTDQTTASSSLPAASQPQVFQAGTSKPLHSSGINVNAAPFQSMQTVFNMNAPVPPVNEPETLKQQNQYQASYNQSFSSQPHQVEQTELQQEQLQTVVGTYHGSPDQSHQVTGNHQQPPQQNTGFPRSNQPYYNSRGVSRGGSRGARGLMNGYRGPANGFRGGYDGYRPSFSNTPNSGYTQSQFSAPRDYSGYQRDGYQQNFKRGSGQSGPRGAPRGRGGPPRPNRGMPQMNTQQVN
Experiment: SPR

fold decrease of koff with 0152 against no compound: 10 fold
fold increase of kon with 0152 against no compound: 3.5 fold
fold reduction of KD with 0152 against no compound: 36 fold
B1: 10xHis-MBP-APP695 (recombinant full-length human APP695 from insect cells) (natural protein)
chain: LEVPTDGNAGLLAEPQIAMFCGRLNMHMNV[skipping about 40 residues]ANQPVTIQNWCKRGRKQCKTHPHFVIPYRCLVGEFVSDALLVPDKCKFLHQERMDVCETHLHWHTVAKETCSEKSTNLHDYGMLLPCGIDKFRGVEFVCCPLAEESDNVDSADAEEDDSDVWWGGADTDYADGSEDKVVEVAEEEEVAEVEEEEADDDEDDEDGDEVEEEAEEPYEEATERTTSIATTTTTTTESVEEVVRVPTTAASTPDAVDKYLETPGDENEHAHFQKAKERLEAKHRERMSQVMREWEEAERQAKNLPKADKKAVIQHFQEKVESLEQEAANERQQLVETHMARVEAMLNDRRRLALENYITALQAVPPRPRHVFNMLKKYVRAEQKDRQHTLKHFEHVRMVDPKKAAQIRSQVMTHLRVIYERMNQSLSLLYNVPAVAEEIQDEVDELLQKEQNYSDDVLANMISEPRISYGNDALMPSLTETKTTVELLPVNGEFSLDDLQPWHSFGADSVPANTENEVEPVDARPAADRGLTTRPGSGLTNIKTEEISEVKM[skipping about 100 residues]
